# In the supplement of paper PMC11417369:
# ± gives the standard deviation of the averaged measurements. This is one part of the list.
# Tested on: PfAP2-LT AP2 domain (GST-tagged)
# Assay: gcPBM binding intensity (ln(normalized median fluorescence intensity)); higher = stronger DNA binding
# How it was run: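 Plasmodium falciparum DNA-binding domains carrying a GST tag were expressed in E. coli and applied for 1 h, at about 25 μg on average, to an Agilent 4 × 180k array. The array held primer-extended double-stranded 36-bp intergenic genomic probes together with negative controls, and binding took place in 1× PBS with 1% milk, 0.2 mg/ml BSA, 0.5% salmon testes DNA and 0.03% Triton X-100. An Alexa488 anti-GST antibody detected bound protein, and the array was scanned at 488 nm. Binding intensity is taken as the highest Masliner-normalised natural-log median intensity across replicate spots of either probe orientation.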
row,Sequence,gcPBM binding intensity (ln)
1,TTTATATATTATATAAATATTATTATACTTTAAATA [TGCATGCA_negctrl_site236],8.07 ± 0.52
2,TTAATTTATTTATGCACACATATATAATTACACATA [CACACA_site4544],8.99 ± 0.37
3,TATAACTATTTATAATGTACTCATGTATAATTATAT [XGTACX_site7913],8.66 ± 0.42
4,TGCTATAATTTATATACACACAAATATATACTCATA [CACACA_site6111],8.86 ± 0.35
5,ATGCTTTTGTCATGTGCACACACGTATATATTATAT [CACACA_site4163],9.64 ± 0.35
6,TCGAACATTAACATAACACACATATATATATATATA [CACACA_site2900],9.88 ± 0.099
7,AAGGTTATTTATATATGTACTTAATATATATATATG [XGTACX_site886],8.81 ± 0.35
8,TTTATAATATACATAACACACAATTATTATTTCTTA [CACACA_site3624],8.55 ± 0.5
9,TTATAACAAATATAGAGTACTAAAATTTTACGTTAT [XGTACX_site1410],8.61 ± 0.45
10,TTTTTTTCCTTATCTATATATAATCAAATTTTCTAC [CACACA_negctrl_site867],8.48 ± 0.52
11,AACTTTTAGAAGAACACACACATATAGATTATGACC [CACACA_site6256],9.24 ± 0.33
12,TTAGCAACTATTACTACACACATTTGTATATAATTT [CACACA_site1591],9.05 ± 0.49
13,TTTTTTTTTTCTTGTTGTACTTTTAATAATTCATAT [XGTACX_site4704],8.7 ± 0.42
14,TTATTAAAAAAAATATGTACTCACAATATAATATAT [XGTACX_site3738],8.45 ± 0.47
15,GAAATTTTTAAAAAGGTGCTTTTAACAAAAATTATT [GTGCAC_site9687],8.31 ± 0.35
16,TATATATATATAACATGTACATAAAATACATTTATA [XGTACX_site7370],8.67 ± 0.31
17,ACCATCCTTAATACTTATTTTTTCACAATTAAGTAA [GTGCAC_negctrl_site269],8.62 ± 0.43
18,AAAAAAAAAAAAAATGCATGTGCGTAAATAATAATA [TGCATGCA_site793],8.81 ± 0.48
19,AGTATTTTAATTTCAGTGCATTTTATTCTATAATTA,8.71 ± 0.38
20,AAGTTTTCTTACAGATGTACTTTTTAAAAATAAACT [XGTACX_site6632],8.66 ± 0.4
21,TTTAGGAAAGGCGGCACACATTTATATATTTATTTA [CACACA_site5931],8.81 ± 0.4
22,ATATATATCTATATTTGTACATATTACATTCAAGTT [XGTACX_site1749],8.94 ± 0.37
23,AAAAAAAAAAAAAGATGTACATATATTTTTATTATA [XGTACX_site654],8.44 ± 0.54

row,Sequence,gcPBM binding intensity (ln)
1,AAGGATATAAAAAAACGTACGTACGATAATATAATT [XGTACX_site1292],9.09 ± 0.45
2,AACCATTCTTCTAATTGTACATTGAAAAATCATGAT [XGTACX_site3854],8.56 ± 0.35
3,AAAATATATATGTATGTTTATATGTTTATATATATT [XGTACX_negctrl_site337],8.71 ± 0.41
4,AAAAAAAAATTTAAGTGTACATTCCATTTTAGTTTA [XGTACX_site5286],8.43 ± 0.44
5,TCTAAGTATAAAGACACACAGAATAAAAAAAAATAT [CACACA_site2367],8.94 ± 0.55
6,TATTTAATATATTTATGTACATATTTATTTATTATT [XGTACX_site524],8.88 ± 0.51
7,AAGAAGCATAAATGTACACACATATTTATATATCAA [CACACA_site6743],9.07 ± 0.53
8,TATTTTTCTTTATTGGTACACACGAAAAAAAAATTG [CACACA_site3054],8.53 ± 0.47
9,AAAATCCAGTTTTCAAAATTGAACAAAAAAAAAATA [GTGCAC_negctrl_site542],8.49 ± 0.49
10,ATATATTTTTTAAACACACACATAAATATTTGTGTA [CACACA_site2879],9.16 ± 0.35
11,AAAGGATATGGACACACACACACATATATATATATA [CACACA_site8686],10.5 ± 0.15
12,CAACACTTATTGAAACGTACGCATATAGTTTCTTTT [XGTACX_site8960],8.84 ± 0.37
13,TTTATTTATATTTATACACACAAACATAATACTACT [CACACA_site7039],8.96 ± 0.42
14,GGATAATATATTAGAACACACATATATCTGTAAAAA [CACACA_site4266],9.16 ± 0.35
15,TAATATAATATATGCACACAAATATGTATATATGTG [CACACA_site2134],9.29 ± 0.23
16,AATAAAATAATAAAAGCACACAAGAATACAGACAAA [CACACA_site112],9.21 ± 0.4
17,TAAGTATAAATATTTACACACATTTGTTTTTTTTTA [CACACA_site7731],8.78 ± 0.4
18,ATGTAAAACATAAAATGTACATATTATACAAACTAT [XGTACX_site5797],9.1 ± 0.42
19,AACTATTTTATTATATGTACTTACGAATTTATAAAA [XGTACX_site5262],8.46 ± 0.37
20,CACAAAATAAATTAAACACACAACATCAGATATGTA [CACACA_site6529],9.09 ± 0.4
21,TAATATACATAATAATGTACATATTTTCATATATAC [XGTACX_site6913],8.74 ± 0.35
22,TGTGTTGTAACAAAATGTACGAGCTTGATGTAGAAT [XGTACX_site2293],9.04 ± 0.39
